Experimental data reported in the supplement of paper PMC9174493.
Some of the results follow. Single values of this set are uncertain. Values with irradiation are relative to irradiated vehicle.

Key:
A549-Dual [1] = assay: NF-kB reporter (SEAP) activity, viability-corrected, relative to vehicle (fold change vs vehicle); higher = more activation of STING-IRF / NF-kB immune response reporter; settings: 10 µM
A549-Dual [2] = assay: ISRE reporter (Lucia luciferase) activity, viability-corrected, relative to vehicle (fold change vs vehicle); higher = more activation of STING-IRF / NF-kB immune response reporter; settings: 10 µM
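For NF-kB reporter (SEAP) activity, viability-corrected, relative to vehicle in this document: viability correction based on the alamar blue assay, with concentrations leaving 10% survival or less dropped.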

Row | Compound | NF-kB reporter (A549-Dual [1]; irradiation: 8 Gy/4 fr) | NF-kB reporter (A549-Dual [1]; irradiation: none) | ISRE reporter (A549-Dual [2]; irradiation: 8 Gy/4 fr) | ISRE reporter (A549-Dual [2]; irradiation: none)
1 | Cc1ccc(S(=O)(=O)O)cc1.O [p-Toluenesulfonic acid monohydrate] | 1.13 | 0.899 | 1.04 | 0.7
2 | O=C(O)c1cccc(-c2noc(-c3ccccc3F)n2)c1 [Ataluren (PTC124)] | 0.711 | 0.491 | 0.704 | 0.359
3 | Cc1ccc(NC(=O)C2(c3ccc4c(c3)OC(F)(F)O4)CC2)nc1-c1cccc(C(=O)O)c1 [VX-809 (Lumacaftor)] | 0.719 | 1.18 | 0.515 | 0.785
4 | COC(=O)c1cccnc1 [Methyl nicotinate] | 0.996 | 0.962 | 0.939 | 0.707
5 | CN(Cc1cc(Br)cc(Br)c1N)C1CCCCC1 [Bromhexine] | 0.545 | 0.955 | 0.657 | 0.8
6 | CCOc1ccc2ccccc2c1C(=O)NC1C(=O)N2C1SC(C)(C)C2C(=O)[O][Na].O (stereo unspecified) [Nafcillin Sodium] | 0.634 | 1.48 | 0.482 | 0.956
7 | CC(Cc1ccc(O)c(O)c1)(NN)C(=O)O (stereo unspecified) [Carbidopa] | 0.939 | 0.881 | 0.89 | 0.677
8 | CN(C)CC/C=C1/c2ccccc2Sc2ccc(Cl)cc21 [Chlorprothixene] | 1.01 | 1.02 | 1.14 | 1.41
9 | CCCCOCc1ccc(O)c(OC)c1 [Vanillyl Butyl Ether] | 0.634 | 0.606 | 0.708 | 0.558
10 | C=CCc1ccc(O)c(-c2ccc(O)c(CC=C)c2)c1 [Honokiol] | 0.52 | 0.373 | 0.598 | 0.552
11 | CC(=O)Nc1c(I)c(NC(C)=O)c(I)c(C(=O)[O-])c1I.[Na+] [Diatrizoate sodium] | 0.827 | 0.536 | 0.732 | 0.485
12 | CCCCCCCCNC(=N)NC(=N)NCc1ccc(Cl)c(Cl)c1.Cl [Olanexidine Hydrochloride semihydrate] | 1.39 | 2.16 | 0.558 | 1.67
13 | COc1ccnc(CS(=O)c2nc3cc(OC(F)F)ccc3[n-]2)c1OC.[Na+] (stereo unspecified) [Pantoprazole sodium] | 0.749 | 0.45 | 0.582 | 0.508
14 | CCC(C)(Oc1ccc(C2(c3ccc(OC(C)(CC)C(=O)O)cc3)CCCCC2)cc1)C(=O)O (stereo unspecified) [Clinofibrate] | 0.958 | 1.17 | 0.988 | 1.47
15 | COc1cc2nc(N(C)CCCNC(=O)C3CCCO3)nc(N)c2cc1OC.Cl (stereo unspecified) [Alfuzosin HCl] | 0.801 | 1.12 | 0.824 | 0.958
16 | CN(C)C(=N)NC(=N)N.Cl [Metformin HCl] | 0.83 | 0.965 | 0.8 | 0.829
17 | O=P([O-])(O)C(O)(Cc1cccnc1)P(=O)(O)O.[Na+] [Risedronate Sodium] | 0.935 | 0.981 | 0.879 | 0.847
18 | CCn1cc(C(=O)O)c(=O)c2cc(F)c(N3CCN(C)CC3)cc21.CS(=O)(=O)O [Pefloxacin Mesylate] | 0.827 | 1.08 | 0.747 | 0.773
19 | COc1ccc(C(=O)CCC(=O)O)c2ccccc12 [Menbutone] | 1.2 | 0.679 | 1.15 | 0.651
20 | Br.COc1ccc2c3c1OC1CC(O)C=CC31CCN(C)C2 (stereo unspecified) [Galanthamine HBr] | 0.78 | 1.25 | 0.606 | 0.647
21 | OCC1OC(OC2(CO)OC(CO)C(O)C2O)C(O)C(O)C1O (stereo unspecified) [Inulin] | 0.901 | 0.987 | 0.895 | 0.822
22 | CCN(CCCc1ccccc1)CCCc1ccccc1.O=C(O)CC(O)(CC(=O)O)C(=O)O [Alverine Citrate] | 0.82 | 0.927 | 0.895 | 0.888
23 | NCCCNCCCCNCCCN [Spermine] | 0.576 | 0.568 | 0.703 | 0.599
24 | Cl.Clc1cccc(Cl)c1NC1=NCCN1 [Clonidine HCl] | 0.734 | 0.945 | 0.9 | 0.835
25 | CC1NC(=O)C(N)CNC(=O)C(C2CCNC(N)=N2)NC(=O)C(=CNC(N)=O)NC(=O)C(CNC(=O)CC(N)CCCN)NC1=O.O=S(=O)(O)O (stereo unspecified) [Capreomycin Sulfate] | 1.01 | 0.874 | 1.02 | 1.01
26 | CN(CC(=O)O)C(=N)N [Creatine] | 0.94 | 1.11 | 0.864 | 1.02
27 | Clc1ccc2c(c1)C(N1CCNCC1)=Nc1ccccc1O2 [Amoxapine] | 0.798 | 1.5 | 0.753 | 0.81

Row | Compound | NF-kB reporter (A549-Dual [1]; irradiation: 8 Gy/4 fr) | NF-kB reporter (A549-Dual [1]; irradiation: none) | ISRE reporter (A549-Dual [2]; irradiation: 8 Gy/4 fr) | ISRE reporter (A549-Dual [2]; irradiation: none)
28 | CCN(CC)CC#CCOC(=O)C(O)(c1ccccc1)C1CCCCC1.Cl (stereo unspecified) [Oxybutynin chloride] | 0.811 | 0.971 | 0.869 | 0.783
29 | NCCCC(O)(P(=O)(O)O)P(=O)(O)[O][Na].O.O.O (stereo unspecified) [Alendronate sodium trihydrate] | 0.835 | 0.663 | 0.702 | 0.639
30 | CC(NC(=NC#N)Nc1ccncc1)C(C)(C)C.O (stereo unspecified) [Pinacidil] | 1.01 | 0.835 | 0.836 | 0.505
31 | CCCCCCCCCCCCOS(=O)(=O)[O-].[Na+] [Sodium lauryl sulfate] | 0.855 | 0.833 | 0.722 | 0.619
32 | CCCN1CCCCC1C(=O)Nc1c(C)cccc1C.CS(=O)(=O)O (stereo unspecified) [Ropivacaine Mesilate] | 0.431 | 1.05 | 0.499 | 0.671
33 | CCC1OC(=O)C(C)C(OC2CC(C)(OC)C(O)C(C)O2)C(C)C(OC2OC(C)CC(N(C)C)C2O)C(C)(O)CC(C)C(=O)C(C)C(O)C1(C)O (stereo unspecified) [Erythromycin] | 0.933 | 0.973 | 1.05 | 0.857
34 | COc1cc(O)c2c(c1)oc(=O)c1c3cc(O)c(O)cc3oc21 [Wedelolactone] | 0.682 | 0.887 | 0.308 | 0.38
35 | Cl.OC(CNCC(O)C1CCc2cc(F)ccc2O1)C1CCc2cc(F)ccc2O1 (stereo unspecified) [Nebivolol HCl] | 0.457 | 0.749 | 0.483 | 0.983
36 | Cc1ncc(CO)c(CO)c1O [Pyridoxine] | 0.933 | 0.867 | 1.04 | 0.838
37 | Nc1ccc(C(=O)O)c(O)c1 [4-Aminosalicylic acid] | 0.896 | 0.868 | 1.01 | 0.718
38 | O=C1CCCC(=O)C1C(=O)c1ccc(C(F)(F)F)cc1[N+](=O)[O-] [Nitisinone] | 1.02 | 0.869 | 0.939 | 0.523
39 | CCN(CC)Cc1cc(Nc2ccnc3cc(Cl)ccc23)ccc1O.Cl.Cl.O.O [Amodiaquine dihydrochloride dihydrate] | 1.29 | 1.08 | 1.53 | 1.39
40 | Br.CN1CCCC1Cc1c[nH]c2ccc(CCS(=O)(=O)c3ccccc3)cc12 (stereo unspecified) [Eletriptan HBr] | 0.534 | 0.748 | 0.702 | 0.97
41 | CCOC(=O)C(CCc1ccccc1)NC1CCc2ccccc2N(CC(=O)O)C1=O.Cl (stereo unspecified) [Benazepril HCl] | 0.773 | 0.893 | 0.873 | 0.712
42 | COC(=O)C1=C(C)NC(C)=C(C(=O)OCCN(C)Cc2ccccc2)C1c1cccc([N+](=O)[O-])c1.Cl (stereo unspecified) [Nicardipine HCl] | 0.649 | 1.46 | 0.636 | 1.73
43 | O=C(O)CSCC(=O)NC1CCSC1=O (stereo unspecified) [Erdosteine] | 0.649 | 0.859 | 0.866 | 0.92
44 | CN(C)CCCN1c2ccccc2CCc2ccccc21.Cl [Imipramine HCl] | 1.28 | 2.63 | 0.0872 | 0.541
45 | COC1(NC(=O)CSCC(N)C(=O)O)C(=O)N2C(C(=O)[O-])=C(CSc3nnnn3C)CSC21.[Na+] (stereo unspecified) [Cefminox Sodium] | 0.708 | 0.898 | 0.727 | 0.744
46 | OC(CNCC(O)C1CCc2cc(F)ccc2O1)C1CCc2cc(F)ccc2O1 (stereo unspecified) [Nebivolol] | 0.656 | 1.35 | 0.565 | 1.24
47 | COc1cc(O)cc(C2CC(=O)c3c(O)cc(OC4OC(CO)C(O)C(O)C4OC4OC(C)C(O)C(O)C4O)cc3O2)c1 (stereo unspecified) [Neohesperidin] | 0.552 | 0.686 | 0.225 | 0.282
48 | CCOc1cc(N)c(Cl)cc1C(=O)NCC1CN(Cc2ccc(F)cc2)CCO1.O=C(O)CC(O)(CC(=O)O)C(=O)O (stereo unspecified) [Mosapride Citrate] | 0.756 | 0.856 | 0.715 | 0.781
49 | CCCOC(=O)c1cc(O)c(O)c(O)c1 [Propyl gallate] | 0.394 | 0.527 | 0.596 | 0.538
50 | CO/N=C(/C(=O)NC1C(=O)N2C(C(=O)[O-])=C(CSc3nc(=O)c([O-])nn3C)CSC12)c1csc(N)n1.[Na+].[Na+] (stereo unspecified) [Ceftriaxone Sodium] | 0.853 | 0.742 | 0.723 | 0.649
51 | CCCCCC(C)(O)/C=C/C1C(O)CC(O)C1C/C=C\CCCC(=O)O (stereo unspecified) [Carboprost] | 1.38 | 1 | 1.44 | 1.12
52 | O=c1c(-c2ccc(O)cc2)coc2cc(O)ccc12 [Daidzein] | 0.84 | 1.2 | 0.57 | 1.03
53 | CCCCOc1ccc(OCCCN2CCOCC2)cc1.Cl [Pramoxine HCl] | 1.09 | 0.98 | 1.3 | 1.19
54 | CC(C)(C)NCC(O)c1ccc(O)c(CO)c1.O=S(=O)(O)O (stereo unspecified) [Salbutamol Sulfate] | 1.02 | 1.11 | 1.13 | 0.849
